# Reference: PMC4336329 (PLoS ONE, 2015)
# The campaign covered roughly 310,000 compounds. About 14,000 (4.5%) showed an effect of 50% or more. Effects have a minus sign here. The list shows a part of the results.
# Biological target: human ether-à-go-go-related gene (hERG) potassium channel (human, UniProt Q12809)
# Test: primary screen, population patch clamp on CHO cells stably expressing hERG
# 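Also: peak tail current of the secondary pulse compared with the same well before compound.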
# human ether-à-go-go-related gene (hERG) potassium channel, sequence (Q12809 whole entry, looked up): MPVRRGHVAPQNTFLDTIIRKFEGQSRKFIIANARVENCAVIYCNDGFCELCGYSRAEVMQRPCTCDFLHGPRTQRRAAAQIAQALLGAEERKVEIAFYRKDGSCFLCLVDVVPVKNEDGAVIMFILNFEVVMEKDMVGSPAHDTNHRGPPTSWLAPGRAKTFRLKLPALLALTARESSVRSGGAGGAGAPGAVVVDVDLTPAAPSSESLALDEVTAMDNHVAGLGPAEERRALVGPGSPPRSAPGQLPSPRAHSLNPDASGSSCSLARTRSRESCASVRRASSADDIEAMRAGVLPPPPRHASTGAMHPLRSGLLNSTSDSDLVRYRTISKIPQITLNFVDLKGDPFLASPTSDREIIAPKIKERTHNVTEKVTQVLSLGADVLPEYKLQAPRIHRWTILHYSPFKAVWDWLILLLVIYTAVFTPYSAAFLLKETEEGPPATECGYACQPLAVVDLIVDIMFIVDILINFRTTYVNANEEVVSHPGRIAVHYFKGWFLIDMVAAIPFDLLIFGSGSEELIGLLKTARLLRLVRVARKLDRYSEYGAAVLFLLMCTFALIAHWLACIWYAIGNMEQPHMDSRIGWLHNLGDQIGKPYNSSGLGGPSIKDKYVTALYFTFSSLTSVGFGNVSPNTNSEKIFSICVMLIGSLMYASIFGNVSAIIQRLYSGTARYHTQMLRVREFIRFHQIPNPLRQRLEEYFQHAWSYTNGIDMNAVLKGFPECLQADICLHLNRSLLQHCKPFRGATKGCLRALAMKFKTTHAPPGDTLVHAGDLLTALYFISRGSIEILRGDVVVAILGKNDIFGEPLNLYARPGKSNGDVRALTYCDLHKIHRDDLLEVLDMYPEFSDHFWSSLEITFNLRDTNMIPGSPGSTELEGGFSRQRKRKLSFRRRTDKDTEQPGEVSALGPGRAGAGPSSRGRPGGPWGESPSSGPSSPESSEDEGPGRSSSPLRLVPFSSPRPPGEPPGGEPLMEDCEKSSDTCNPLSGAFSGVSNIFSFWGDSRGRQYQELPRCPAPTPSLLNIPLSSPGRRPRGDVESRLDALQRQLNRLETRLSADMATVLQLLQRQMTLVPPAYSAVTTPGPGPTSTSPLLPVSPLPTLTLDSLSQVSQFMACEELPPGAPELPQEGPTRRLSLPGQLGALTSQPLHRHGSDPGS
row,SMILES,"hERG current change (%, negative = inhibition) at 10uM [%]"
1,Clc1nccnc1N/N=C/c1ccc(Br)cc1,-50.3
2,CS(=O)(=O)N(Cc1ccc(F)cc1)Cc1nc2ccccc2c(=O)[nH]1,-0.244
3,COc1cccc(Cn2cccc(NC(=O)NCc3ccccc3)c2=O)c1,-3.25
4,O=C(O)CN1C(=O)NC2(CCOc3ccccc32)C1=O (stereo not drawn),5.8
5,Cc1c(Cl)cccc1Nc1nc(NCCO)c2ccccc2n1.Cl,-27.2
6,Cc1ccc(NC(=O)C(Cc2ccccc2)n2cccc2)cc1 (stereo not drawn),3.37
7,c1ccc(CCCN2CCN(c3ccccn3)CC2)cc1,-51.7
8,CSc1c(CC(=O)Nc2ccccc2)n(Cc2ccccc2)c2ccccc12,6.9
9,COc1ccc(CN(C)C(=O)COC(=O)c2ccc3c(c2)OCO3)cc1OC,-3.84
10,COc1cccc(C2C(C(C)=O)=C(O)C(=O)N2Cc2ccco2)c1 (stereo not drawn),19.2
11,c1ccc(CCNc2nc3ccccc3s2)cc1,-3.17
12,COCCN(C(=O)CSc1nnc(-c2ccccc2F)n1N)c1c(N)n(Cc2ccccc2)c(=O)[nH]c1=O,5.14
13,COc1cc(/C=C2\SC(N)=NC2=O)ccc1OCC(=O)Nc1ccc(C)cc1,-5.51
14,O=C(NOC(=O)c1c(F)cccc1Cl)c1ccc(Cl)c(Cl)c1,17.8
15,COc1ccc(Cl)cc1N(C(=O)Nc1cccc(Cl)c1)C1=NCC(C)S1 (stereo not drawn),12.9
16,OCCc1ccc(O)cc1,12.4
17,Cc1nnc(NC(=O)c2ccc3ccccc3c2)s1,23
18,COc1ccc(S(=O)(=O)N(CC(=O)NN=C2CCN(C)CC2)c2cc(Cl)ccc2OC)cc1OC,7.51
19,O=C(OCc1cnc(Cl)s1)c1cccs1,3.18

row,SMILES,"hERG current change (%, negative = inhibition) at 10uM [%]"
1,Cc1ccc(N(C(=O)c2snc(C(N)=O)c2N)C(CC(C)C)C(=O)NC2CCCC2)cc1 (stereo not drawn),-19.5
2,COCCOc1cc(NC(=O)c2ccccc2)c(Cl)cc1Cl,-8.47
3,CCN(CCCNC(=O)CCNC(=O)Cn1cnc2ccccc2c1=O)c1ccccc1,-6.94
4,CCOc1ccc(C(Nc2ccc(C)cc2)P2(=O)OCC(C)(C)CO2)cc1 (stereo not drawn),4.67
5,O=C(Cc1ccccc1F)Nc1cc(Cl)ccc1N1CCCC1,15.2
6,COc1ccc(CCC(=O)NCCNC(=O)CCc2ccc(OC)cc2)cc1,12
7,O=C(NCCC(c1ccccc1)c1ccccc1)c1cccs1,-14.2
8,OC[C@H]1O[C@@H](Oc2cc(O)cc(/C=C/c3ccc(O)cc3)c2)[C@H](O)[C@@H](O)[C@@H]1O,7.67
9,COc1ccc(C2C(O)C(c3c[nH]c4ccccc34)=NN2C(=O)CCl)cc1 (stereo not drawn),11.5
10,O=C(/C=C/c1cccc([N+](=O)[O-])c1)NCCN1CCOCC1,-2.6
11,N#Cc1c(NC(=O)c2ccc(-c3ccccc3[N+](=O)[O-])o2)sc2c1CCCC2,-1.1
12,O=[N+]([O-])C(/C=C(/Cl)[N+](=O)[O-])=C(N1CCCCC1)N1CCCCC1,-4.21
13,O=S(=O)(c1ccc(NCCOc2ccccc2)nc1)N1CCCC1,-21.3
14,COC(CNC(=O)C1CC(=O)N(CCc2ccc(C)cc2)C1)OC (stereo not drawn),7.72
15,NS(=O)(=O)c1ccc(C(=O)Nc2ccc(-c3nc4cccnc4s3)cc2)cc1,14.4
16,O=C1c2oc3ccccc3c(=O)c2C(c2cccc(F)c2)N1CCCO (stereo not drawn),-6.7
17,CCOC(=O)c1ccc(-n2[nH]c(-c3ccccc3)cc2=O)cc1,3.61
18,CCOc1ccc(OCCCC(=O)N(C)CC(=O)Nc2ccc(N3CCOCC3)cc2)cc1,-15.4
19,N#Cc1ccc(C2=CC(=O)C[C@H](c3ccc(F)cc3)C2)cc1,-72.1

row,SMILES,"hERG current change (%, negative = inhibition) at 10uM [%]"
1,CC(=O)Nc1ccc(S(=O)(=O)Nc2nc3n(n2)C(c2ccccc2)CC(=O)N3)cc1 (stereo not drawn),5.99
2,CCCC(=O)OCCNc1cc(Sc2nc3ccccc3[nH]2)c2nonc2c1[N+](=O)[O-],2
3,O=C(NCCc1ccccc1)C1CCCN1S(=O)(=O)c1ccc(F)cc1 (stereo not drawn),2.24
4,COc1cc(C(=O)OC(C)CN2CCCCC2)cc(OC)c1OC.Cl (stereo not drawn),-4.43
5,Cc1nc(SCc2ccccc2)[nH]c(=O)c1CC(=O)OCC(C)C,15.5
6,Cc1cc(-n2cnc(-c3cn(C)nc3C)n2)no1,11
7,Cc1ccc(-c2ccc(CCC(=O)O)n2-c2ccc(O)cc2)cc1,15.1
8,O=C(CCc1nnc(CCCc2ccccc2)o1)NCCN1CCOC1=O,23.3
9,COc1ccc(NC(=O)CSc2n[nH]c(-c3ccco3)n2)cc1,-2.42
10,Cc1cccc(OCCCC(=O)Nc2ccc(N3CCOCC3)cc2)c1,13.5
11,O=C1C=C(c2ccc(F)nc2)CCC1,1.44
12,COc1ccc2sc(-c3ccccc3OC)c(C#CCCO)c2c1,12.6
13,CCCNC(=O)C(Cc1ccc(C(F)(F)F)cc1)NC(=O)c1ccc(C#N)cc1 (stereo not drawn),-31.7
14,NC(=O)[C@@H]1CCCN1C(=O)c1ccc2nc(Cc3ccccc3F)oc2c1,16.7
15,C=CCNc1nnc(SCC(=O)Nc2ccccc2OC)c2ccccc12,-0.862
16,O=C(CSc1ccc2nnc(-c3cccc(F)c3)n2n1)NCC1CCCO1 (stereo not drawn),-22
17,Cc1ccc(S(C)(=O)=NC(=O)NC(=O)c2c(F)cccc2Cl)cc1 (stereo not drawn),7.36
18,Cc1csc(SC(C)C(=O)Nc2ccc(Cl)cn2)n1 (stereo not drawn),-12.9
19,CC(C)=CCc1c2c(c(O)c3c(=O)c4c(oc13)-c1cc(O)c(O)cc1OC4C=C(C)C)C=CC(C)(C)O2 (stereo not drawn),15.7
